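A five-concentration, 48-hour dose response in 96-well plates underlies each endpoint, interpolated linearly between surrounding concentrations. GI50 marks 50% less growth.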 Activity calls are given as the source filed them. No stated cut-off is given here; in the data, active = GI50 up to about 1.1 µM and inactive = higher. Some results are limits rather than exact numbers.

In the assay the test system is NCI-H322M. Briefly: DTP human tumour cell line panel, 48 h.
`CN(Cc1cc(Br)cc(Br)c1O)Cc1c(O)ccc2ccccc12`: the GI50 was inactive: 16.4 µM.

Take `Cn1c(=O)c2nc(CCCc3ccc([N+](=O)[O-])cc3)[nH]c2n(C)c1=O`: the GI50 is inactive: > 100 µM.

For `Nc1ccc(-c2ccc(Nc3cc(S(=O)(=O)O)c(N)c4c3C(=O)c3ccccc3C4=O)cc2)c(S(=O)(=O)O)c1`, the GI50 is inactive: > 100 µM.

For the molecule `C=C1CC2(OC1=O)c1ccccc1CCc1ccccc12`, the GI50 is inactive: 16.6 µM.

As to `Cc1ccc2c(=O)cc(-c3ccc(-c4ccccc4)s3)[nH]c2n1`, the GI50 is inactive: > 53 µM.

As to `C=CCN(N=O)C(=O)N(CCCCC(NC(C)=O)C(=O)NCc1ccccc1)Cc1ccccc1` (stereo not given), the GI50 was inactive: 28.2 µM.

In the case of `N=C(N)NS(=O)(=O)c1ccc(Nc2c3ccccc3nc3c(C(=O)NNCCO)cccc23)cc1`, the GI50 is active: 0.34 µM.

Take `CC(C)C(NC(=O)Oc1ccccc1)C(=O)NC1c2c(Br)sc(Br)c2C(=O)C1O` (stereo not given): the GI50 is inactive: 7.45 µM.

For the molecule `CC1(C)N[PH]2(Nc3ccccc3O2)OC1=O`, the GI50 was inactive: > 100 µM.

Turning to `[O-][S+]1Nc2cccc(C(F)(F)F)c2S1` (stereo not given), the GI50 is inactive: 52.7 µM.

With `N#Cc1nsnc1-c1nc(-c2nsnc2C#N)nc(-c2nsnc2C#N)n1`, the GI50 is inactive: > 100 µM.

Take `O=C(CCc1nnc2s/c(=C\c3ccc4c(c3)OCO4)c(=O)n12)Nc1cc(Cl)ccc1Cl`: the GI50 is inactive: > 100 µM.

As for `O=C(O)c1cccc(S(=O)(=O)NN2C(=O)CSC2c2ccccc2)c1` (stereo not given), the GI50 is inactive: > 100 µM.

For the molecule `O=C1c2cc(Cl)ccc2N=C(NC2CCCC2)C2CSCN12` (stereo not given), the GI50 is inactive: > 100 µM.

For the molecule `Cc1ccccc1-c1c(N)nc(NC#N)nc1C(=O)Nc1ccccc1`, the GI50 is inactive: > 100 µM.

As for `C/C(=N/NC(=O)C[n+]1ccccc1)C(CN(CC(C)C)CC(C)C)C(=O)Nc1ccc(C)cc1C` (stereo not given), the GI50 is inactive: > 100 µM.

In the case of `O=C1c2ccccc2CN1c1ccc(O)cc1`, the GI50 was inactive: > 100 µM.

For the molecule `CC(=O)N(C(=O)CC(=O)N1N=C(c2ccccc2)C(/N=N/c2ccccc2[N+](=O)[O-])C1=O)c1ccc(Cl)cc1` (stereo not given), the GI50 was inactive: > 10 µM.

For the molecule `O=C1NC(=O)C2C(=O)NC(=O)C1C2(c1ccccc1)c1cc[nH]c1` (stereo not given), the GI50 is inactive: > 100 µM.

As for `CCOC(=O)C(NC(=O)c1ccccc1)(Nc1ccc(S(=O)(=O)Nc2nc(C)cc(C)n2)cc1)C(F)(F)F` (stereo not given), the GI50 was inactive: > 100 µM.

In the case of `CC1(OCc2ccccc2)C(=O)N2C1N(C(=O)OCc1ccccc1)CC2(C)C` (stereo not given), the GI50 is inactive: > 100 µM.

On to `CSc1nc(CO)c(CO)n1C`, for which the GI50 was inactive: > 100 µM.

Take `CCn1nc2c3c(ncn3C(C)(C)O2)c1=O`: the GI50 was inactive: > 100 µM.

In the case of `O=C1C2=C(CCCCC2)C2CCCCC12O` (stereo not given), the GI50 is inactive: > 100 µM.

In the case of `CCOC(=O)C1=C(Nc2ccc(NC3=C(C(=O)OCC)C(=O)CS3)cc2)SCC1=O`, the GI50 was inactive: 16.4 µM.

For the molecule `COc1ccc(C2N(c3ccc(F)c([N+](=O)[O-])c3)C(=O)N3C(c4ccc(OC)cc4)N(c4ccc(F)c([N+](=O)[O-])c4)C(=O)N23)cc1` (stereo not given), the GI50 is inactive: > 100 µM.

Regarding `CC(=O)Nc1c(C)ccc2c1C(=O)c1ccccc1C2=O`, the GI50 was inactive: > 100 µM.

Regarding `O=C1c2ccccc2C(=O)c2sc(Nc3ccc(Cl)c(Cl)c3)nc21`, the GI50 is inactive: 15.6 µM.

With `Cc1ccc(Oc2ccc(C)cc2N)cc1`, the GI50 is inactive: > 100 µM.

Turning to `CC(=O)N(C(C)=O)n1c(Cc2ccc(Cl)cc2)n[nH]c1=O`, the GI50 was inactive: > 100 µM.

As for `SCc1ccc(-c2ccc(CS)cc2)cc1`, the GI50 is inactive: 6.05 µM.

`c1ccc(C2=Nn3c(CCCCCCCCc4nnc5n4N=C(c4ccccc4)CS5)nnc3SC2)cc1`: the GI50 is inactive: > 88.7 µM.

Turning to `CCCCCCCCCCCCc1ccsc1-c1ccc(-c2ccc(-c3sccc3CCCCCCCCCCCC)s2)s1`, the GI50 is inactive: > 100 µM.

Consider `C=C1C(=O)OC2C=C(C)CC3C=C(CCC=C(C)CCC12)C(=O)O3` (stereo not given), for which the GI50 is inactive: 59.8 µM.

In the case of `N#Cc1c(-c2ccccc2)[nH]c(=O)n(C2OC(CO)C(O)C(O)C2O)c1=O` (stereo not given), the GI50 is inactive: > 100 µM.

On to `COC(=O)C1=C(c2cc(OC)c(OC)c(OC)c2)OC(c2ccc(OC)c(OC)c2)C1` (stereo not given), for which the GI50 was inactive: 88.3 µM.

In the case of `c1ccc(CSC(SCc2ccccc2)c2ccc3c(c2)OCO3)cc1`, the GI50 is inactive: > 10 µM.

As for `CCc1cc(O)c(Cl)c(C)c1Cl`, the GI50 was inactive: 18.1 µM.

For `O=C1c2ccccc2C(C2c3ccccc3C(=O)c3cc(Br)ccc32)c2ccc(Br)cc21` (stereo not given), the GI50 is inactive: > 100 µM.

Take `Cc1nc2c(=O)n(C)c(=O)n(C)c2o1`: the GI50 was inactive: > 100 µM.

Regarding `CC(C)(O)/C1=C/C=C/CCCCCCCCCC1`, the GI50 is inactive: > 100 µM.

For the molecule `Cc1cccc(NC(=O)C(=O)C(C(=O)c2ccccc2F)C2OC(=O)c3ccccc32)c1Cl` (stereo not given), the GI50 is inactive: 19.7 µM.

On to `COc1cc2c(cc1NC(=O)c1ccccc1)c1c(n2S(=O)(=O)c2ccccc2)CCN(S(=O)(=O)c2ccccc2)C1`, for which the GI50 was inactive: > 100 µM.

Take `c1cc2sc1CSCCSCCSC2`: the GI50 is inactive: > 100 µM.

For `CC(C)(C)OC(=O)N[C@H]1CC2(C=C(Cl)C(=O)C(Cl)=C2)OC1=O`, the GI50 was inactive: > 53.3 µM.

Take `CC(=C/C=C/C=C(C)\C=C\C=C(\C)C(=O)O)/C=C/C=C(/C)C(=O)O`: the GI50 is inactive: > 100 µM.

Consider `Cc1cc(/C=C/c2cc[n+](C)c3ccccc23)c(O)c2ncccc12`, for which the GI50 was inactive: 2.14 µM.

For `COC(=O)c1sc(C(=O)OC)c2c1CSC2`, the GI50 is inactive: > 100 µM.

As to `Nc1nc(N)c(C2=CCN(Cc3ccccc3)CC2)c(=O)[nH]1`, the GI50 is inactive: > 100 µM.

Consider `CC(=O)N(C)c1ccc2ncccc2c1[N+](=O)[O-]`, for which the GI50 was inactive: > 100 µM.

As for `NC(=O)NC(=O)C1CCCCC1C(=O)O` (stereo not given), the GI50 is inactive: > 100 µM.

For `O=C(Nc1ccccc1[N+](=O)[O-])c1ccccc1`, the GI50 is inactive: > 100 µM.

In the case of `CSC12c3cc(C)n(-c4ccccc4)c3CC(C)(C)CN1C(=O)C2Oc1ccccc1` (stereo not given), the GI50 was inactive: 30.7 µM.

For `CCN(C(=O)N[C@@H](Cc1ccccc1)C(=O)N[C@@H](CC(C)C)C(=O)NC)c1ccccc1`, the GI50 was inactive: > 100 µM.

On to `O=C1CCCCCCCCCCC(=O)N2CCOCCOCCN1Cc1cccc(n1)C2`, for which the GI50 was inactive: > 100 µM.

Turning to `CC(C)(Oc1ccc(/C=C/C(=O)c2ccccc2)cc1)C(=O)Nc1c(Cl)cccc1Cl`, the GI50 is inactive: > 10 µM.

For `COC1C(O)=C2C(=O)OC(C)(O)/C=C/C=C\C=C/C=C/C(c3ccccc3)NC(=O)/C=C/C=C/C=C/C=C/C2(C)C1O` (stereo not given), the GI50 was active: 0.0918 µM.

On to `Cc1c(C#N)c2nnn(-c3ccc([N+](=O)[O-])cc3)c(=O)n2c1-c1ccccc1`, for which the GI50 is inactive: 18.7 µM.

For the molecule `Cc1ccccc1/N=C/N(C)C`, the GI50 was inactive: 83.9 µM.

`COC(=O)[C@@]12CN(C)[C@@H](C(C)(C)C)N1C(=O)OC2c1ccccc1` (stereo not given in full): the GI50 was inactive: > 100 µM.

For orientation: GI50 means the concentration giving 50% growth inhibition.

The record behind these values is ChEMBL document CHEMBL1201862, “PubChem BioAssay data set” (2004).
